In paper PMC4336329 (PLoS ONE, 2015):
Screen size: about 310,000 compounds; about 14,000 (4.5%) showed an effect of 50% or more. The effect is printed as a negative number. This is one part of the list.

Molecular target: human ether-à-go-go-related gene (hERG) potassium channel (human, UniProt Q12809)
Assay: primary screen, population patch clamp on CHO cells stably expressing hERG
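Further: peak tail current of the secondary pulse compared with the same well before compound.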

Chain of human ether-à-go-go-related gene (hERG) potassium channel (Q12809 whole entry, looked up): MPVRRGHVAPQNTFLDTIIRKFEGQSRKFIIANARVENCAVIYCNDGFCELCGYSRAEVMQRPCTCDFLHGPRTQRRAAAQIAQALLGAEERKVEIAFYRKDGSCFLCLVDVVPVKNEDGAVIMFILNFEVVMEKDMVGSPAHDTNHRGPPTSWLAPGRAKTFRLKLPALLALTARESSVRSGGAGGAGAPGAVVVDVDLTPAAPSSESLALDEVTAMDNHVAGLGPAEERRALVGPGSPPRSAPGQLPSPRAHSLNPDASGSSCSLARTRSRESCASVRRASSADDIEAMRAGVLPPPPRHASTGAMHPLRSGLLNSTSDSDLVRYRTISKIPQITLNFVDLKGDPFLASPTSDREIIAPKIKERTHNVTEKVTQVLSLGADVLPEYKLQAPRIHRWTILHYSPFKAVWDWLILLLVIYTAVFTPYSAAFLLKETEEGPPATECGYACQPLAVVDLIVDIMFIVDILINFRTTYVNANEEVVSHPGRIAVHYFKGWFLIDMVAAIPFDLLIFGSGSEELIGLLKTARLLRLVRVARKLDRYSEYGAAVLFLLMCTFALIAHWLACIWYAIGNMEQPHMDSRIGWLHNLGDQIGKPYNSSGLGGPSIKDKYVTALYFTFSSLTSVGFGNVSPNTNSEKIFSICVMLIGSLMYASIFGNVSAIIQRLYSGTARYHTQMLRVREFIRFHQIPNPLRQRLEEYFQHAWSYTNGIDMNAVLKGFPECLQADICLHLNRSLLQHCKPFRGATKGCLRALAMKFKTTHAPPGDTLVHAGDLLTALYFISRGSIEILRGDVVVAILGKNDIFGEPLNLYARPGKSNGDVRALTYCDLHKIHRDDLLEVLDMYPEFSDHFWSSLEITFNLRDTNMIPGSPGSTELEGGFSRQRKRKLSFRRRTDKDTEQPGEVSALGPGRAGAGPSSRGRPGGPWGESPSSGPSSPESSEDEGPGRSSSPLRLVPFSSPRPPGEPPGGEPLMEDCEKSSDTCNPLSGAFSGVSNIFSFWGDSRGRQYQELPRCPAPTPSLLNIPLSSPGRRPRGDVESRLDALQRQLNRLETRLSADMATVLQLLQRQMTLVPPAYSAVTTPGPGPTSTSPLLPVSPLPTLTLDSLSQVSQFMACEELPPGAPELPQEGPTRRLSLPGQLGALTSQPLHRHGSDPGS

SMILES	hERG current change (%, negative = inhibition) at 10uM
Cc1cc(C)c2c(c1)/C(=N/NS(=O)(=O)c1ccccc1)CCC2	7.48%
CCCC(c1nnnn1Cc1ccc2c(c1)OCO2)N1CCC(C(N)=O)CC1 (centres unmarked)	18.2%
CCn1c(SCC(=O)N/N=C/C=C\c2ccccc2[N+](=O)[O-])nnc1-c1ccccc1	-67%
O=C(CCC1CCCN(c2ncccn2)C1)NCc1ccccc1F (centres unmarked)	-4.03%
CSc1ccc(C2Nc3ccccc3-c3cc(C)nn32)cc1 (centres unmarked)	-3.75%
COc1ccc(CC(=O)Nc2cccc(C)n2)cc1OC	21.3%
O=C(/C=C/c1ccc(S(=O)(=O)N2CCOCC2)cc1)NCCc1ccc(C(F)(F)F)cc1	3.05%
COc1cc(OC)c2cc(C(=O)N[C@@H](Cc3ccccc3)C(=O)O)n(C)c2c1	8.47%
CCc1nn(-c2cc(Oc3cccc4ccccc34)nc(-c3ccccc3)n2)c(N)c1C#N	23.3%
CCN(CC)CCN=Cc1c(O)n(CCc2ccccc2)c(=O)[nH]c1=O	-23.7%
O=C(O)C1(c2cccc(Cl)c2)CCC1	6.99%
O=C(O)c1cc(N=Nc2c(O)[nH]c3ccc([N+](=O)[O-])cc23)ccc1Cl	10.2%
CC(C)(C)NC(=O)CN(C(=O)C(=O)Nc1ccc2c(c1)OCCO2)N1CCOCC1	-8.72%
O=c1c2ccccc2ncn1/N=C/c1ccccc1	30.6%
CC(=O)Nc1ccc(NC(=O)CNC(=O)c2cccc(C)c2)cc1	-4.54%
COc1ccc(C2N(c3ccc(Cl)cc3)C(=O)C3CCCN32)cc1 (centres unmarked)	-8.51%
Cc1nnc(SCc2nnc(-c3ccccc3Br)o2)n1-c1ccccc1	-14.6%
Fc1ccc(NC(=S)Nc2nccs2)cc1	-16.1%
CCOc1nc(N=C(N)N)nc2c(C)cccc12	2%

SMILES	hERG current change (%, negative = inhibition) at 10uM
COc1cc(C(=O)Nc2cccc(-c3nnc(-c4ccco4)o3)c2)ccc1OC(C)=O	-42.6%
CCOc1cc(O)c(-c2[nH]ncc2-c2nc(C)cs2)cc1CC	3.54%
CCn1cc(Cl)c(C(=O)Nc2ccccc2C(N)=O)n1	-7.91%
Cc1nc2ccc(NC(=O)c3ccc([N+](=O)[O-])cc3)cc2s1	0.891%
CC(=O)N1c2ccc(S(=O)(=O)NCC3CCC(C(=O)NC4CCCCC4)CC3)cc2CC1C (centres unmarked)	12.5%
Cc1ccc(C)c2c(N)c3c(nc12)CCCCC3.O=C(O)c1cncc(Br)c1	-88.4%
CCc1cc(-c2nc(N)ncc2-c2ccc(Br)cc2)c(O)cc1OC	10%
O=C(/C=C/c1cn(-c2ccccc2)nc1-c1cccnc1)c1ccco1	-12%
O=C(CN1CCN(S(=O)(=O)c2ccc(Br)cc2)CC1)Nc1ccc2c(c1)OCO2	-62.4%
COc1ccc(CC(=O)NCc2ccccn2)cc1OC	9.93%
Cc1ccc(-n2ncc3c(NCc4ccco4)ncnc32)cc1C	-1.7%
CCOc1ccccc1C(=O)N/N=C/c1c[nH]c2ccccc12	26.3%
CN(C(=O)CSc1nnc(-c2ccc(Cl)cc2)n1CC1CCCO1)C1CCS(=O)(=O)C1 (centres unmarked)	-0.671%
C/C(=N\Nc1ncc(Cl)cc1Cl)c1ccc2c(c1)OCO2	9.57%
CCn1c(SCC(=O)NCC(=O)Nc2ccc(F)cc2)nnc1-c1ccncc1	0.83%
CC(C)N(C(=O)NC(=O)NCC1CCCO1)S(C)(=O)=O (centres unmarked)	10.5%
CC/C(=N\NC(=O)c1ccccc1Cl)c1ccc(Br)s1	4.04%
CCCCSc1nc(NCc2ccco2)c2c3c(sc2n1)COC(C)(C)C3	-8.98%
CN(C(=O)Cc1ccc(Cl)c(Cl)c1)C(CN1CCCC1)c1cccc(OCC(=O)O)c1.Cl (centres unmarked)	7.11%

SMILES	hERG current change (%, negative = inhibition) at 10uM
Cn1c(=O)c2c(nc(SCc3cccnc3)n2Cc2ccccc2)n(C)c1=O	-17.6%
COc1ccccc1CC(=O)N1CCN(S(=O)(=O)c2ccccc2)CC1	-7.82%
CN1C(=O)C(O)(C2COC(C)(C)CC2=O)c2cc(Br)ccc21 (centres unmarked)	-21%
Cc1cc(C(=O)NCc2cc(C)n(C)n2)sc1-c1ccccc1	-13.7%
CCc1nnc(SCC(=O)Nc2ccc(N3CCOCC3)cc2)n1C	13.5%
COc1cccc(NC(=O)CC2C(=O)NCCN2C(=S)Nc2ccc(F)cc2)c1 (centres unmarked)	15.2%
Cc1cccc(C)c1NC(=O)NC1(C(=O)NCC2CCCO2)CCCCC1 (centres unmarked)	11.2%
CCOC(=O)N1CCN(c2nc(=S)n(-c3ccccc3)c(C)c2C(C)=O)CC1	-2.56%
O=C1CCCCCN1CSc1nc2ccccc2s1	-5.65%
CCOc1ccccc1CN1CCN(C2CCSCC2)CC1CCO (centres unmarked)	-25.9%
CCCCN(C(=O)C1CCC1)c1c(N)n(CCC)c(=O)[nH]c1=O	-1.71%
CCOc1ccccc1N(CC(=O)Nc1ccc(OC)cc1)S(=O)(=O)c1ccccc1	6.3%
Cc1nn(-c2ccccc2)c(N2CCCC2)c1/C=N/Nc1ccc(S(N)(=O)=O)cc1[N+](=O)[O-]	1.15%
CCOC(=O)N1CCC(N2CCCC(C(=O)c3cccc(OC(C)C)c3)C2)CC1 (centres unmarked)	-76.8%
CCOC(=O)c1csc(NC(=O)CSc2nnnn2CC)n1	-2.37%
O=C(Nc1ccccc1Cl)c1ccc(-n2cccn2)c([N+](=O)[O-])c1	9.46%
O=c1[nH]c2ccccc2nc1-c1ccc(Cl)cc1	19.8%
COc1ccc(NC(=O)C2CC(=O)N/C(=N/NC(=O)c3ccc(Cl)cc3)S2)cc1 (centres unmarked)	-5.77%
